Data from the supplement of paper PMC9446081.
The campaign covered roughly 39,000 compounds. About 220 (0.56%) showed activity. The list shows a part of the results.

These compounds were tested on Escherichia coli K-12 BW25113 (assay: relative growth (OD600 normalised to plate interquartile mean) (fraction); higher = less growth inhibition, active = 0.2 or less). Details: 50 µM; LB; incubation time: overnight (16-24 h).
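Note: static incubation at 37 °C against the wild-type strain, values averaged over two biological replicates.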

Row | SMILES | relative growth
1 | N#Cc1ccc(C(c2ccc(C#N)cc2)n2cncn2)cc1 | inactive: 0.89
2 | C[C@H]1C(=O)C(=O)[C@@H]2O[C@@H]2C1=O | inactive: 0.576
3 | C[C@H]1CCCCO[C@@H](CN(C)Cc2ccncc2)[C@@H](C)CN([C@@H](C)CO)C(=O)c2cc(NC(=O)Nc3ccc(F)cc3)ccc2O1 | inactive: 0.996
4 | COc1cccc(S(=O)(=O)N2C[C@H](O)COC[C@H]3O[C@H](CC(=O)NCCCN4CCOCC4)CC[C@@H]32)c1 | inactive: 1.02
5 | Cc1noc(C)c1NC(=O)Nc1ccc2c(c1)C(=O)N([C@H](C)CO)C[C@@H](C)[C@H](CN(C)Cc1ccc(C(=O)O)cc1)OCCCC[C@@H](C)O2 | inactive: 1.04
6 | O=C(C[C@@H]1CC=CC[C@@H](NC(=O)OCC2c3ccccc3-c3ccccc32)C(=O)OC[C@H](Cc2ccccc2)NC1=O)N[C@H](CO)Cc1ccccc1 | inactive: 0.957
7 | C[C@H]1CCCCO[C@@H](CN(C)Cc2ccccc2)[C@@H](C)CN([C@@H](C)CO)C(=O)c2cc(NC(=O)Nc3ccc(F)cc3)ccc2O1 | inactive: 0.996
8 | C[C@H]1CCCCO[C@H](CN(C)Cc2ccc(C(F)(F)F)cc2)[C@@H](C)CN([C@@H](C)CO)C(=O)c2cc(N(C)C)ccc2O1 | inactive: 0.986
9 | CC(C)NC(=O)N(C)C[C@H]1Oc2ccc(NS(=O)(=O)c3cccs3)cc2C(=O)N([C@H](C)CO)C[C@H]1C | inactive: 0.994
10 | C[C@@H]1CCCCO[C@@H](CN(C)C(=O)Nc2ccc(C(F)(F)F)cc2)[C@H](C)CN([C@@H](C)CO)C(=O)c2cc(NC(=O)CCC(F)(F)F)ccc2O1 | inactive: 1.01
11 | CN1CCN(C(=O)C[C@@H]2C=C[C@@H](NS(=O)(=O)c3cccc(F)c3)[C@H](CO)O2)CC1 | inactive: 0.988
12 | C[C@@H]1CN([C@@H](C)CO)C(=O)Cc2cc(NC(=O)Nc3cccc4ccccc34)ccc2O[C@@H]1CN(C)CC1CCCCC1 | inactive: 1.02
13 | C[C@@H]1CN([C@H](C)CO)C(=O)c2cccc(NC(=O)c3cnccn3)c2O[C@@H]1CN(C)C(=O)Nc1ccccc1 | inactive: 1.02
14 | Cc1ccc(C(C)C)cc1O | inactive: 1.01
15 | C[C@H]1CCCCO[C@@H](CN(C)S(=O)(=O)c2cccs2)[C@@H](C)CN([C@@H](C)CO)C(=O)c2cc(NC(=O)C3CCCCC3)ccc2O1 | inactive: 1.01
16 | C[C@@H]1CN([C@@H](C)CO)C(=O)c2cc(NC(=O)CCCCCC(=O)Nc3ccccc3N)ccc2O[C@@H]1CN(C)S(=O)(=O)c1cn(C)cn1 | inactive: 1
17 | CCCN(C)C[C@@H]1Oc2cc(C#Cc3ccc(OC)cc3)ccc2S(=O)(=O)N([C@@H](C)CO)C[C@@H]1C | inactive: 0.995
18 | C=CCN1C(=O)C[C@@H]2[C@@H]1CCN2c1cnccn1 | inactive: 1
19 | COc1ccc(S(=O)(=O)Nc2ccc3c(c2)C(=O)N([C@@H](C)CO)C[C@H](C)[C@H](CN(C)C(=O)Nc2ccccc2)OCCCC[C@@H](C)O3)cc1 | inactive: 0.955
20 | O[C@H]1[C@H](O)[C@@H](O)[C@H](O)[C@H](O)[C@H]1O | inactive: 0.995

Row | SMILES | relative growth
21 | Cc1ccc(S(=O)(=O)N(C)C[C@H]2Oc3ccc(NC(=O)Nc4cccc5ccccc45)cc3C(=O)N([C@@H](C)CO)C[C@@H]2C)cc1 | inactive: 1.02
22 | C[C@@H]1CCCCO[C@H](CN(C)C(=O)CCC(F)(F)F)[C@@H](C)CN([C@H](C)CO)C(=O)c2cc(NC(=O)CCCCCC(=O)Nc3ccccc3N)ccc2O1 | inactive: 1.04
23 | O=C1O[C@@H](c2ccccc2)[C@@H](c2ccccc2)N2[C@@H](c3ccc(O)cc3)[C@]3(C(=O)Nc4ccc(C#CC5=CCCCC5)cc43)[C@@H](C(=O)N3CCCCCCC3)[C@H]12 | inactive: 0.989
24 | C[C@@H]1CN([C@H](C)CO)C(=O)c2cc(NS(=O)(=O)c3ccc(Cl)cc3)ccc2O[C@@H](C)CCCCO[C@@H]1CN(C)C(=O)c1ccncc1 | inactive: 1
25 | C[C@@H]1CN([C@@H](C)CO)C(=O)c2cc(NC(=O)c3ccccc3)ccc2O[C@@H](C)CCCCO[C@@H]1CN(C)C(=O)CCC(F)(F)F | inactive: 0.997
26 | Cn1cnc(S(=O)(=O)N[C@H]2CC[C@H](CC(=O)N3CCN(c4ccccc4)CC3)O[C@H]2CO)c1 | inactive: 0.991
27 | C[C@@H]1CN([C@H](C)CO)C(=O)c2cccc(NS(=O)(=O)c3ccc(F)cc3)c2O[C@@H]1CN(C)Cc1ccncc1 | inactive: 0.964
28 | C[C@@H]1CCCCO[C@@H](CN(C)S(=O)(=O)c2ccccc2)[C@@H](C)CN([C@@H](C)CO)C(=O)c2cc(NC(=O)Nc3ccc(F)cc3)ccc2O1 | inactive: 1.02
29 | C[C@H](CO)N1C[C@H](C)[C@@H](CN(C)C(=O)Nc2ccc(F)cc2)OCCCC[C@H](C)Oc2ccc(NC(=O)CCC(F)(F)F)cc2C1=O | inactive: 0.997
30 | C[C@H]1CN([C@@H](C)CO)C(=O)Cc2cc(NS(=O)(=O)c3ccc(Cl)cc3)ccc2O[C@H]1CN(C)Cc1ccc(Cl)c(Cl)c1 | inactive: 1
31 | CCCCCc1c2c(cc(O)c1C(=O)O)OC(=O)c1c(cc(OC)cc1C(=O)CCCC)O2 | inactive: 0.697
32 | COc1ccc(S(=O)(=O)N[C@@H]2CC[C@@H](CC(=O)N3CCC(Cc4ccccc4)CC3)O[C@@H]2CO)cc1 | inactive: 0.979
33 | COc1ccc(NC(=O)N(C)C[C@H]2Oc3cc(C#CCN(C)C)ccc3S(=O)(=O)N([C@H](C)CO)C[C@@H]2C)cc1 | inactive: 1
34 | Clc1ccc(CCC(Cn2ccnc2)Sc2c(Cl)cccc2Cl)cc1 (centres undefined) | inactive: 0.883
35 | COc1ccccc1S(=O)(=O)N(C)C[C@@H]1OCc2cn(nn2)CCCC(=O)N([C@H](C)CO)C[C@@H]1C | inactive: 0.988
36 | Cc1nc(=O)[nH]c(C(=O)O)c1C | inactive: 0.988
37 | C[C@H]1CN([C@@H](C)CO)C(=O)c2cc(NS(=O)(=O)c3ccc(F)cc3)ccc2O[C@H]1CN(C)S(=O)(=O)c1cccs1 | inactive: 0.987
38 | C[C@H](CO)N1C[C@H](C)[C@@H](CN(C)Cc2ccc3c(c2)OCO3)Oc2c(NC(=O)Nc3ccc(C(F)(F)F)cc3)cccc2C1=O | inactive: 0.894
39 | Cc1ccc(S(=O)(=O)Nc2ccc3c(c2)C(=O)N([C@@H](C)CO)C[C@@H](C)[C@@H](CN(C)Cc2ccncc2)OCCCC[C@H](C)O3)cc1 | inactive: 0.998
40 | CC(C)NC(=O)Nc1ccc2c(c1)C(=O)N([C@@H](C)CO)C[C@H](C)[C@H](CN(C)C(=O)C1CCCCC1)OCCCC[C@@H](C)O2 | inactive: 1.02

Row | SMILES | relative growth
41 | C[C@@H]1CN([C@@H](C)CO)C(=O)c2cc(NS(C)(=O)=O)ccc2O[C@@H]1CN(C)S(=O)(=O)c1cn(C)cn1 | inactive: 1.01
42 | C[C@@H]1CN([C@@H](C)CO)C(=O)Cc2cc(NC(=O)Cc3cn(C)c4ccccc34)ccc2O[C@@H]1CN(C)CC1CCCCC1 | inactive: 0.979
43 | Cn1cccc1C(=O)N[C@H]1CN(S(C)(=O)=O)[C@H]2CCCO[C@@H]12 | inactive: 0.983
44 | COc1ccc(NC(=O)Nc2cccc3c2O[C@@H](CN(C)CC2CCCCC2)[C@H](C)CN([C@@H](C)CO)C3=O)cc1 | inactive: 1
45 | C[C@@H]1CN([C@@H](C)CO)C(=O)c2cc(NS(=O)(=O)c3cccs3)ccc2O[C@@H](C)CCCCO[C@H]1CN(C)C(=O)Cc1ccccc1 | inactive: 0.991
46 | O=C(C[C@H]1CC[C@H]2[C@@H](COC[C@H](O)CN2S(=O)(=O)c2ccccc2)O1)NCc1ccc(-c2ccccc2)cc1 | inactive: 1.01
47 | COC(=O)N/N=C/c1c[n+]([O-])c2ccccc2[n+]1[O-] | active: 0.0462
48 | C[C@H](CO)N1C[C@H](C)[C@@H](CN(C)C(=O)C2CCCCC2)OCCCC[C@H](C)Oc2ccc(NC(=O)CCC(F)(F)F)cc2C1=O | inactive: 1.02
49 | C[C@@H]1CN([C@H](C)CO)C(=O)c2cc(NS(=O)(=O)c3ccc(Cl)cc3)ccc2O[C@@H](C)CCCCO[C@@H]1CN(C)S(=O)(=O)c1ccc(Cl)cc1 | inactive: 1.02
50 | C[C@H](CO)N1C[C@H](C)[C@@H](CN(C)S(=O)(=O)c2ccc(-c3ccccc3)cc2)OCc2cnnn2CCCC1=O | inactive: 1.02
51 | C[C@H](CO)N1C[C@H](C)[C@H](CN(C)Cc2ccc(C(F)(F)F)cc2)Oc2ccc(NC(=O)Cc3ccccc3)cc2C1=O | inactive: 1.03
52 | Cc1ccc(-c2cnc(-c3ccc(Br)cc3)o2)cc1 | inactive: 0.991
53 | CCCCCCCCCCCCCCCCCCOCC(O)CO (centres undefined) | inactive: 1.01
54 | C[C@@H]1CN([C@@H](C)CO)C(=O)c2cc(NS(=O)(=O)c3ccc(F)cc3)ccc2O[C@@H]1CN(C)S(=O)(=O)c1cn(C)cn1 | inactive: 0.983
55 | Cc1ccc(S(=O)(=O)Nc2ccc3c(c2)C(=O)N([C@H](C)CO)C[C@@H](C)[C@H](CN(C)Cc2ccc(C(=O)O)cc2)OCCCC[C@@H](C)O3)cc1 | inactive: 0.987
56 | C[C@H](CO)N1C[C@H](C)[C@H](CN(C)C(=O)C2CCCCC2)OCCCC[C@H](C)Oc2ccc(NC(=O)Nc3ccccc3)cc2C1=O | inactive: 0.958
57 | C[C@H](CO)N1C[C@H](C)[C@@H](CN(C)S(=O)(=O)c2cccs2)Oc2ccc(NC(=O)C3CC3)cc2C1=O | inactive: 0.992
58 | Cc1noc(C)c1S(=O)(=O)Nc1ccc2c(c1)C(=O)N([C@@H](C)CO)C[C@@H](C)[C@H](CN(C)S(=O)(=O)c1cn(C)cn1)O2 | inactive: 0.992
59 | C[C@@H]1CCCCO[C@H](CN(C)S(=O)(=O)c2cccs2)[C@H](C)CN([C@@H](C)CO)C(=O)c2cc(NC(=O)Nc3ccccc3)ccc2O1 | inactive: 1.01
